Source: the supplement of paper PMC10126150
Sequences with one replicate were seen in a single cluster, so their values are uncertain.

Tested on: ATP
Assay: switch fluorescence ratio, 500 uM ATP over buffer (Cy3 cluster intensity, sum of 5 cycles each) (fold (ratio)); higher = stronger signal-on switching upon ATP binding; sequences stand for … in TCGTCGGCAGCGTCAGATGTGTATAAGAGACAGTTTTTTTTTTTTTTTTTTTTTTTTT…TC
Details: aptamer strand: ATP DNA aptamer (quencher-CACCTGGGGGAGTATTGCGGAGGAAGG + anchor), 100 nM annealed; ATP concentration: 500 uM; one replicate
Summary of the method: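 Between each of five buffer/ATP cycles, the flow-cell was stripped with NaOH and re-annealed. Each cycle imaged Cy3-labelled switching-strand clusters, annealed to 100 nM quencher-labelled ATP aptamer on a modified Illumina MiSeq flow-cell, first in selection buffer and then after 15 min with 500 uM ATP at 22 °C. The fluorescence ratio is summed target-cycle over summed buffer-cycle Cy3 intensity per cluster, averaged per switch-domain sequence, with clusters outside 100-1000 RFU excluded.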
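Further: ATP exposure 15 min at 22 °C before imaging.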

Sequence | switch fluorescence ratio
GTAACTCAGC | 0.998
ATAAGTCCAG | 1.01
GGGGCCCTAC | 0.989
GCCACCAGGC | 1.04
AATCCGGCGG | 1.01
AGTCAAGTTG | 0.949
TTTCTTGAGC | 0.99
TGTAAGTATG | 0.996
CAGTTCTAAT | 1.01
GGGAATGTTG | 0.98
AAGGCCTCTA | 1.01
ATTTTGGC | 1.3
GGGTAGTTGC | 0.969
ACCGAGAGTA | 0.999
TTAATTGAG | 1.01
AAGATGTCTG | 0.98
GTAGCCTAAG | 1.01
ACAACTGAGA | 1.05
AAAAGGGCCA | 0.99
AGCAGACGAG | 1.02
ATCGGTAAAA | 1
GCGTGGTTTT | 0.963
CCCTCAAGCA | 2.75
ACAGTAAAT | 1.01
CGCTGCGATT | 1.01
ACAGGCTTCT | 1.02

Sequence | switch fluorescence ratio
CATCAAGAAA | 0.95
TAAGCATAGT | 1.03
GGCCAGCTGT | 0.962
CATCTAGGTC | 1.16
TGGGAATTGC | 1.01
GTACGATTAA | 0.978
GACAGAAAAA | 1.09
GTAGTAAACG | 1.03
CTCATTGCCC | 0.976
GGCGTTTGGA | 1.01
TGTTGCGCTG | 0.99
AGCCGGATCG | 0.982
TGAATTTT | 1.03
CGCAGTAACT | 2.34
ACATGTGCTT | 1.04
GGGCAAGATG | 1.06
TATTTACCAT | 1.06
GTCAGTCTTT | 1.14
GTGTCACGCA | 1.01
CAGTGTGAGT | 0.951
AGGTATAGTG | 0.985
TCTCTGACTC | 1.21
CGTGGCTTAA | 1.02
GCTTAAATTA | 0.986
CCAAATCGAG | 1.01
AACCATTGT | 1

Sequence | switch fluorescence ratio
GTGTATAATG | 1.01
AAAGCTCGGA | 1.01
AGAGTCTGAT | 0.98
AATCACTTTC | 1.1
CAGTGAACTT | 1.03
TTGGGCCGGA | 1.02
ATTCCCAGTC | 1.05
GTAGCGGGTG | 1.09
TTGATAAATA | 1.37
ACTAACCTAT | 1.1
ATCATTAGTT | 0.968
GAGCACCT | 1.13
TATCATGCGG | 0.978
TGGAAAGCAT | 1.02
TGCTCGAGGG | 0.971
TGAGCAAAAA | 1.02
CTCAGATGGC | 1.01
ATAGTAGCAG | 1.01
TTACGAAG | 0.979
AACGGCGTGT | 1.01
GAGGATTTT | 0.953
TGAATTTACG | 1.04
CTTATATAGT | 0.946
TCTACCATCC | 1.4
GCAGTGCAGC | 0.972
TGTTCAAAAA | 0.993

Sequence | switch fluorescence ratio
TGGATGTTAG | 0.995
AGGCATTAAG | 0.943
CTGTCATCCT | 1.03
GGTGCAGCGA | 1.04
TAGCAGAACA | 0.946
TCGGAATTAC | 4.29
ATGTTTAGTA | 1.02
GTTGTTCGAA | 1.03
AGAAGGCGAC | 1.02
ACTCGGGCTC | 1.01
TGCAGGAACC | 1.06
ACTCAGAGAA | 1
TCCCAGACAC | 1.14
CGCTCTACCA | 1.1
TTTGGACTGC | 1.1
GGGGTCTAAC | 0.986
GCGACATGTG | 1
CCTATGGCTG | 1.05
GGTCTTGGGG | 1.02
ATTTTTACGA | 1.01
GAGATTTCGT | 0.995
TTTATCCAGA | 1.01
TCCTGTCCGG | 1.02
GGGCCGATAT | 0.97
GGCATAATCA | 0.992
CACAATACC | 2.13

Sequence | switch fluorescence ratio
CACTTCATCT | 1.02
TGGTACTGAC | 1.28
GAAGAACTTT | 1.01
TAAGGTCGCA | 1.02
GCGCGCGGGT | 0.997
AGGTGTAGTC | 1.04
GTGTAAGGTC | 1.02
GCCAAATTCG | 0.991
CGTTTCTAGC | 0.972
TCAGCCATA | 1.03
AATGGTCTTG | 0.997
AGCAGGTTAT | 0.991
AGTAATCTAC | 0.991
CCATTTCCGT | 1.04
GGTTACCGGG | 1.01
TCTTTTCCGG | 0.971
ATTGCTGGCC | 1
ACACTTAGAG | 1.02
ACACTCATGC | 1.05
GATTTATTAA | 0.979
AGCCTTAGGC | 0.981
GCAATTGCGC | 1.03
TCATCAGAGA | 0.993
AGCACCGTCA | 0.967
CGATTTACAG | 0.99
TCAACTCCGA | 1.29

Sequence | switch fluorescence ratio
CACTATGATA | 1.02
TGTTCTCTTG | 0.971
GTAGAATGAC | 1.04
TCTGGGGTTC | 0.987
TAGGAGAACA | 0.985
TTTCACATAT | 1.03
CGCACAGAAG | 0.967
ATCCCCCTTC | 1.07
CGGTACCTAA | 1.01
TGCCGCTGGA | 1.02
ATTCACGTAA | 1.36
TAGGTTCGCT | 1.01
AATAGGA | 0.977
TACATCGGTT | 0.998
GGATAAACGC | 1.01
AGGGCGTTTT | 0.986
TGAAGTGCAT | 0.985
AATCTGAGCA | 1.04
AAAACAGGGG | 0.991
ATCCAAAGA | 1.04
CATGAAGGAC | 1.05
GGAACAGAG | 1.01
CTAGTCAGCG | 1
CATATCTCCT | 1.02
GCCAACCGGG | 1
TAGTCATCT | 1.05

Sequence | switch fluorescence ratio
TTGCAACGGA | 1.02
AACCTCCACC | 1.58
CCGTTACAGC | 1.34
ACGTATGGCC | 1.08
CCCGAAGATG | 1.07
ACTGCGGAT | 1.01
CCTAAATATC | 1.46
CTAGACAGGA | 1.01
TGGATCGGCG | 1.01
GAACGGGATC | 1.73
GATAAGATCG | 1.03
ACATCGGCGA | 1.03
TTAGCCAAA | 1.01
CACTGCCAAC | 1.29
GAGTTCATG | 0.96
GGAAGCGCAT | 1.06
AAGGGTCCTA | 0.989
TAAACAAAAA | 0.967
GGGCTATTGT | 1.34
TTGGTTATTG | 1.02
AAATTAGACG | 1.13
GGGACGGTGG | 0.973
CAATGCAGTT | 1.03
CAGCGTTGAG | 1.01
CTTTTACGCT | 1.04
TTTTTTAAA | 1.01

Sequence | switch fluorescence ratio
CACGCGACGG | 1.39
CTACGTGTCA | 1.05
AGAGGTCGTA | 1.01
GATACGCGT | 1.01
AATTCGAGGA | 1.01
GATTTGTCGA | 0.964
TGACGGGGTC | 1.01
AACCCAGATA | 0.973
GTTGCCTTAA | 0.937
GACCGACAGC | 1.4
TTCTTAATAT | 0.986
GGTAATAGGT | 0.967
TTACGCTAC | 2
CGATCTTTTT | 0.975
GTGGTCAGTT | 1.03
GCCCATCTT | 0.956
CTTAGACATT | 0.982
TCGAGGCTTT | 1.16
CATGTTCTTG | 0.972
